Legend:
Experiment in all cases: cell-based or functional assay
[1] = target: T1, human ROR1, full length, on cells (human, UniProt Q01973 30-937)
[2] = target: T1, human ROR1, full length, on cells; remark: listed apart in the source
[3] = target: T1, human ROR1, full length, on cells; remark: listed apart in the source
[4] = target: T1, human ROR1, full length, on cells; remark: listed apart in the source
[5] = target: T1, human ROR1, full length, on cells; remark: listed apart in the source
[6] = target: T1, human ROR1, full length, on cells; remark: listed apart in the source

T1 sequence (Q01973 30-937): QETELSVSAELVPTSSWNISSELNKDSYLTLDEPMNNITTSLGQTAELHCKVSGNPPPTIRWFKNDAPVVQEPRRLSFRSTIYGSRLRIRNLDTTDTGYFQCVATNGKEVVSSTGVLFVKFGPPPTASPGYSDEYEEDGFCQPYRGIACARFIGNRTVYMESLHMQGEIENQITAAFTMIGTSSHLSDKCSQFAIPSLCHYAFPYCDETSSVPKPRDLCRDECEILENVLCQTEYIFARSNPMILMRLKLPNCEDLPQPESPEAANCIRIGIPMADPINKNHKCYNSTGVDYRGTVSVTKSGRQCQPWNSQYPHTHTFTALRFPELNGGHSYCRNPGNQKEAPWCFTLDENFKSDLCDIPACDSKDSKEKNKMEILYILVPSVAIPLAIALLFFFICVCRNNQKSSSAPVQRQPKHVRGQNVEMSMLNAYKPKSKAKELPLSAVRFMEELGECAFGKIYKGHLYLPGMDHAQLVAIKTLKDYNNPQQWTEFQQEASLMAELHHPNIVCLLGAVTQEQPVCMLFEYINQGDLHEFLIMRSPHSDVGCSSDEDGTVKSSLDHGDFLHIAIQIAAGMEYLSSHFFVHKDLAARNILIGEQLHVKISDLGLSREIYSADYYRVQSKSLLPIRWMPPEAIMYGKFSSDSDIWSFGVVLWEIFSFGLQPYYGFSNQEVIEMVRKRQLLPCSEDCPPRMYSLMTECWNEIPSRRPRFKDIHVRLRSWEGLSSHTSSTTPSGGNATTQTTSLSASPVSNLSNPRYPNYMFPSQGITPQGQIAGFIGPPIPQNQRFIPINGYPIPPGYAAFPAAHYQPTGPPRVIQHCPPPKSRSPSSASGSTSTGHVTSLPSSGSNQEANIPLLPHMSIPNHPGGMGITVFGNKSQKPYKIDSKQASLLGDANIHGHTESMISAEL

Binder | IC50 of in vitro cell killing, 697 cells [1] | IC50 of in vitro cell killing, HS 578T cells (hROR1 status positive) [2] | IC50 of in vitro cell killing, MDA-MD-468 cells (hROR1 status positive) [2] | IC50 (cell killing of Kasumi-2 cells, luminescence) [3] | IC50 (cell killing of 697 cells, luminescence) [4] | IC50 (read off the curve) [5] | IC50 of in vitro cell killing, hROR1-overexpressing EMT-6 [6]
2A2-G5-PNU antibody drug conjugate (other, Gly5-EDA-PNU joined by sortase to the C-terminal G5SLPETG tag; Gly5-EDA-PNU joined by sortase to the C-terminal LPETG tag) heavy: QVQLQQSGAELVRPGASVTLSCKASGYTFSDYEMHWVIQTPVHGLEWIGAIDPETGGTAYNQKFKGKAILTADKSSSTAYMELRSLTSEDSAVYYCTGYYDYDSFTYWGQGTLVTVSA[no letters for human IgG1 constant region]LPETGGWSHPQFEK light: DIVMTQSQKIMSTTVGDRVSITCKASQNVDAAVAWYQQKPGQSPKLLIYSASNRYTGVPDRFTGSGSGTDFTLTISNMQSEDLADYFCQQYDIYPYTFGGGTKLEIKRTVAAPSVFIFPPSDEQLKSGTASVVCLLNNFYPREAKVQWKVDNALQSGNSQESVTEQDSKDSTYSLSSTLTLSKADYEKHKVYACEVTHQGLSSPVTKSFNRGECGGGGSLPETGGWSHPQFEK | 0.038 µg/mL | 1.78 µg/mL | 0.456 µg/mL | 0.0012 µg/mL | 0.118 µg/mL |  | 
R12-G5-PNU antibody drug conjugate (other, Gly5-EDA-PNU joined by sortase to the C-terminal G5SLPETG tag; Gly5-EDA-PNU joined by sortase to the C-terminal LPETG tag) heavy: QEQLVESGGRLVTPGGSLTLSCKASGFDFSAYYMSWVRQAPGKGLEWIATIYPSSGKTYYATWVNGRFTISSDNAQNTVDLQMNSLTAADRATYFCARDSYADDGALFNIWGPGTLVTISS[no letters for human IgG1 constant region]LPETGGWSHPQFEK light: ELVLTQSPSVSAALGSPAKITCTLSSAHKTDTIDWYQQLQGEAPRYLMQVQSDGSYTKRPGVPDRFSGSSSGADRYLIIPSVQADDEADYYCGADYIGGYVFGGGTQLTVTGQPKAAPSVTLFPPSSEELQANKATLVCLISDFYPGAVTVAWKADSSPVKAGVETTTPSKQSNNKYAASSYLSLTPEQWKSHKSYSCQVTHEGSTVEKTVAPTECSGGGGSLPETGGWSHPQFEK | 0.0721 µg/mL | 3.5 µg/mL | 0.349 µg/mL | 0.0018 µg/mL | 0.16 µg/mL | ~0.01 µg/mL | 
R11-G5-PNU (adc041) antibody drug conjugate (other, Gly5-EDA-PNU joined by sortase to the C-terminal G5SLPETG tag; Gly5-EDA-PNU joined by sortase to the C-terminal LPETG tag) heavy: QSVKESEGDLVTPAGNLTLTCTASGSDINDYPISWVRQAPGKGLEWIGFINSGGSTWYASWVKGRFTISRTSTTVDLKMTSLTTDDTATYFCARGYSTYYGDFNIWGPGTLVTISS[no letters for human IgG1 constant region]LPETGGWSHPQFEK light: ELVMTQTPSSTSGAVGGTVTINCQASQSIDSNLAWFQQKPGQPPTLLIYRASNLASGVPSRFSGSRSGTEYTLTISGVQREDAATYYCLGGVGNVSYRTSFGGGTEVVVKRTVAAPSVFIFPPSDEQLKSGTASVVCLLNNFYPREAKVQWKVDNALQSGNSQESVTEQDSKDSTYSLSSTLTLSKADYEKHKVYACEVTHQGLSSPVTKSFNRGECGGGGSLPETGGWSHPQFEK | 0.47 µg/mL |  |  |  |  |  | 
Ms961-G5-PNU (adc396) antibody drug conjugate (other, Gly5-EDA-PNU joined by sortase to the C-terminal G5SLPETG tag; Gly5-EDA-PNU joined by sortase to the C-terminal LPETG tag) heavy: EIQLQQSGPVLVKPGASVKVSCKASGYAFTAYNIHWVRQSHGKRLEWIGSFDPYDGGSSYNQKFKDKATLTVDKSSTTAYMHLNSLTSEDSAVYYCARGWYYFDYWGHGTTLTVSS[no letters for human IgG1 constant region]LPETGGWSHPQFEK light: DVQITQSPSYLAASPGETITINCRASKSISKYLAWYQEKPGKTNKLLIYSGSTLQSGIPSRFRGSGSGTDFTLTISSLEPEDFAMYYCQQHDESPYTFGEGTKLEIKRTVAAPSVFIFPPSDEQLKSGTASVVCLLNNFYPREAKVQWKVDNALQSGNSQESVTEQDSKDSTYSLSSTLTLSKADYEKHKVYACEVTHQGLSSPVTKSFNRGECGGGGSLPETGGWSHPQFEK |  |  |  |  |  |  | 0.0115 µg/mL
